Our source for the self-cleavage values is the RNAGym collection of RNA variant scans (doi:10.7554/elife.90254).

The source gives no read counts; variants with many changes may rest on few reads.

B1: LINE1-mini (parent)
chain: GGCAGAGCUCAACACAGCGUGGCAAAGUGGCUGUGGCUAGACUGCC

In the series the parent is B1. Nature of the series: self-cleavage, relative activity (ratio to wild type); higher = more cleavage; in vitro, sequencing; the parent is a self-cleaving ribozyme.
For GGCAGAGCUCAACACAACGUGGCAAAGUGGCUGGGAUUAGACUGCC [G17A U34G G36A C37U], the self-cleavage stood at 0.03.

As for GGCAGAGCUCAACACAACGUAGCAAAGUGGCUGUGGCUAGACGGCC [G17A G21A U43G], the self-cleavage came to 0.02. For the variant GGCAGAGCUCAACACACCGUGGCAUAGUGGCUCUGGCGAGACUGCC [G17C A25U G33C U38G], the self-cleavage amounted to 0.02. To GGCAGAGCUCAACACACCGUGGCAUAGUGGCUGUGGCUAGACUUCC [G17C A25U G44U] belongs 0.01; to GGCAGAGCUCAACACAACUUGGCGAAGUGGCUGUAGCAAGACUGCC [G17A G19U A24G G35A U38A], 0.06. To GGCAGAGCUCAACACAACGUGACAAAGUGGCUAUGGCUAGACUGCC [G17A G22A G33A] belongs 0.02. For GGCAGAGCUCAACACAACGUGGCAAAGUGGCUGUGGCUACACCGCC [G17A G40C U43C] the value was 0.01; for GGCAGAGCUCAACACAACGUUGCAAAGUGGCUGUGCCUAGACUGCC [G17A G21U G36C], 0.04; for GGCAGAGCUCAACACACCGUGGCAUAGUUGCUGUGCACAGACUGCA [G17C A25U G29U G36C C37A U38C C46A], 0.06. As to GGCAGAGCUCAACACAACGUGGCAAAGUGGCUGAGGCUGGACUCCC [G17A U34A A39G G44C], the self-cleavage worked out at 0.03. For GGCAGAGCUCAACACAACGUGCCAAAGUGGCUGUGCCUAGACUGCC [G17A G22C G36C], the self-cleavage amounted to 0.06.

For the variant GGCAGAGCUCAACACACCGUGGCUAAGGGGCUAUUGCUAGCCUGCC [G17C A24U U28G G33A G35U A41C], the self-cleavage worked out at 0.07. For GGCAGAGCUCAACACAACGUGGCAAAGUGACUCUGGCUAGAGUGCC [G17A G30A G33C C42G] the value was 0.04; for GGCAGAGCUCAACACAACGUGUCAAAUUGGCUGUUGCUAGACUGCC [G17A G22U G27U G35U], 0.25; for GGCAGAGCUCAACACAACGUAGCAAUGUUGCUGUGGCUAGACUGCC [G17A G21A A26U G29U], 0.11.

With GGCAGAGCUCAACACAACGUGGCAAAGUGGCUGAGGGUAUACUGCC [G17A U34A C37G G40U], the self-cleavage amounted to 0. For GGCAGAGCUCAACACACCGUGGCCAAGUGGCGGUGACUAGACUGCC [G17C A24C U32G G36A] the value was 0.01. To GGCAGAGCUCAACACAACAUGGCCAAGUGGCUGUGGUUAGCCUGCC [G17A G19A A24C C37U A41C] belongs 0.01; to GGCAGAGCUCAACACAACGCGGCAACGUGGCUGUGGCUAUACUGCC [G17A U20C A26C G40U], 0.02.

Regarding GGCAGAGCUCAACACAACAUGGCAAACUGGCUGUGGCUAGACUGCC [G17A G19A G27C], the self-cleavage worked out at 0.23. As for GGCAGAGCUCAACACACCGUGGCACAUUGGCUGGGGCUAGACUGCC [G17C A25C G27U U34G], the self-cleavage is 0.04. To GGCAGAGCUCAACACAACAUGGCAAAGUGGCUGUGGCUAUACUGCC [G17A G19A G40U] belongs 0.02; to GGCAGAGCUCAACACAACGUGGCAAAGUGGCUGUUGCUAAACUGCC [G17A G35U G40A], 0.14; to GGCAGAGCUCAACACACCGUGGCAUAGUGGCUGAGGCUAGACUGCA [G17C A25U U34A C46A], 0.02.

In the case of GGCAGAGCUCAACACAACGUGGCAAAGUGGCUGUGACUUGACUGCC [G17A G36A A39U], the self-cleavage was found to be 0.02.

Take GGCAGAGCUCAACACAACGCGGCAAAGUGGCUGUGGUUAGACUGCC [G17A U20C C37U]: the self-cleavage was determined as 0.02. To GGCAGAGCUCAACACAACGUGGCAAAGUGGCUGCGGUUAGACUGCC [G17A U34C C37U] belongs 0.04. As to GGCAGAGCUCAACACAACGUGGCAAACUGGCUUUCGCUCGACUGCA [G17A G27C G33U G35C A39C C46A], the self-cleavage turned out to be 0.13. To GGCAGAGCUCAACACAACGUGAUAAAGUCGCUGUGGCUAGACUGCC [G17A G22A C23U G29C] belongs 0.15; to GGCAGAGCUCAACACAACGUGGCAAAGUCGCUGUGGCUAGACCGCC [G17A G29C U43C], 0.06. To GGCAGAGCUCAACACAACGUGUCAAAAUGGCUGUGGCUAGACUGCU [G17A G22U G27A C46U] belongs 0.37; to GGCAGAGCUCAACACAACGUGGCAAAGUGGCUGUAGCUAGAAUGCC [G17A G35A C42A], 0.01. GGCAGAGCUCAACACAACUUGGCAAAGUGACUGUACCUAGACUGAG [G17A G19U G30A G35A G36C C45A C46G]: the self-cleavage stood at 0. For the variant GGCAGAGCUCAACACAACGAGGCAAAGUGGAUCUGGCUAGACUGCC [G17A U20A C31A G33C], the self-cleavage was found to be 0.22. For GGCAGAGCUCAACACAACGUAGCAAAGUGGCUGUGGCUAGACUGCU [G17A G21A C46U] the value was 0.08.

With GGCAGAGCUCAACACAACGUGGCAAAGUGGCUGUCGCUGGACUGCC [G17A G35C A39G], the self-cleavage turned out to be 0.03. Consider GGCAGAGCUCAACACAACGAGGCAAAGUGGCUGUGGCUAGGCUGCC [G17A U20A A41G], for which the self-cleavage worked out at 0.05. For GGCAGAGCUCAACACACCGUGGCAACGUGGCUGUGGCUAGAAUGCC [G17C A26C C42A] the value was 0.04; for GGCAGAGCUCAACACAACGUGGCAAAGUGGCUCUGGGUAGACUGCC [G17A G33C C37G], 0.02. For GGCAGAGCUCAACACAACGUGGCAAACUGGCUGGGGCUAGUCUGCC [G17A G27C U34G A41U] the value was 0.05; for GGCAGAGCUCAACACAACGUGUCAAAGUGGCUGUUGCUAGACUGCC [G17A G22U G35U], 0.01; for GGCAGAGCUCAACACAACGUGGCAAAUUGGCUGUGACUAGACUGCC [G17A G27U G36A], 0.09. Consider GGCAGAGCUCAACACAACCAGGCAAAAUGGCUGUGGCUACACUGCC [G17A G19C U20A G27A G40C], for which the self-cleavage was found to be 0.06.

Consider GGCAGAGCUCAACACAACGUGGCAAAGUGGCUUUGGCUAGACUGUC [G17A G33U C45U], for which the self-cleavage came to 0.03.

Regarding GGCAGAGCUCAACACAACGUGGCAAAUUGGCAGUGGCUAGACUGCC [G17A G27U U32A], the self-cleavage was 0.11. For GGCAGAGCUCAACACACCGUGGCAUAGUGGCUGUGGCUAAACUGCC [G17C A25U G40A] the value was 0.08. For the variant GGCAGAGCUCAACACACCGUGGCAAAGUGGCUGUGGCUAGCCUGCU [G17C A41C C46U], the self-cleavage worked out at 0.03. For GGCAGAGCUCAACACAACGUGUCAAACUGGCUGUGGCUAGACUACC [G17A G22U G27C G44A], the self-cleavage came out at 0.14. GGCAGAGCUCAACACAACGUGGCAAAGUGUCUGUGGCUAGACUUCC [G17A G30U G44U]: the self-cleavage turned out to be 0.02. For GGCAGAGCUCAACACAACGUUGCAAAGUGGUUGUGGCUAAACUGGC [G17A G21U C31U G40A C45G] the value was 0.05; for GGCAGAGCUCAACACAACGUGGCAAAGUUGCUGUGGAUAGACUGCC [G17A G29U C37A], 0.03. For GGCAGAGCUCAACACAACGUGGCAAAGUGGCUGCAGCUAAACUGCC [G17A U34C G35A G40A] the value was 0.19. Take GGCAGAGCUCAACACAACGUGGCAAAGUAGCUGUGGCCAGACUGCC [G17A G29A U38C]: the self-cleavage came out at 0.06.

On to GGCAGAGCUCAACACAACGUGGCAAAGUGACUGUUGCUAGAAUGCC [G17A G30A G35U C42A], for which the self-cleavage is 0.01. To GGCAGAGCUCAACACAACGUAGCAAAGUAGCUGUGGCUAGACUGCC [G17A G21A G29A] belongs 0.62.

Take GGCAGAGCUCAACACACCGUGGCAAAGUGGCUGUGGCUUGUCUGCC [G17C A39U A41U]: the self-cleavage turned out to be 0.26.
